# Reference: the supplement of paper PMC11417369
# ± gives the standard deviation of the averaged measurements. This is one part of the list.
# Test system: PfAP2-G AP2 domain (GST-tagged)
# Test: gcPBM binding intensity (ln(normalized median fluorescence intensity)); higher = stronger DNA binding
# How it was run: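 The binding buffer was 1× PBS containing 1% milk, 0.2 mg/ml BSA, 0.5% salmon testes DNA and 0.03% Triton X-100. In it, GST-tagged P. falciparum DNA-binding domains expressed in E. coli were applied for 1 h to an Agilent 4 × 180k array of primer-extended double-stranded 36-bp intergenic genomic probes plus negative controls. Binding intensity, read with Alexa488 anti-GST antibody and a 488 nm scan, is the highest Masliner-normalised natural-log median intensity across replicate spots of either probe orientation.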
row,Sequence,gcPBM binding intensity (ln)
1,AAAAAAAAAAGAAACACACACATTTGTATATAATAT [CACACA_site2078],9.92 ± 0.17
2,TTGATTACACTGAAGTGTACATATATATATATATAT [XGTACX_site3532],11.2 ± 0.75
3,AAAATTAATAAATAAACACACATATATATATATATA [CACACA_site2598],9.93 ± 0.35
4,CATATAAAAATGTGCACACACACACCCATATATATT [CACACA_site1526],10.4 ± 0.41
5,CAAAACAAAACGTATGCACACAATTAATATATTAAA [CACACA_site3405],10.2 ± 0.21
6,TTTTTGCCATATTACACACACACATGTAAACCCCCT [CACACA_site1647],10.9 ± 0.69
7,GTGAAATATGCAAACACACACGAGAAAAATGTATAT [CACACA_site7488],10.13 ± 0.021
8,TATTTTTTTCTTACATACTAATTTGGTACTCACATA [TGCATGCA_negctrl_site81],11 ± 0.75
9,AAATAAATCTTATGCACACAAATAATTAATTAAACA [CACACA_site1693],10.06 ± 0.014
10,AGAGTTCTCATATGCACACAAAAAACTTTCATTTAT [CACACA_site45],10.2 ± 0.18
11,TAAATAAGCACATACACACATACATACATACATAAA [CACACA_site4017],10.1 ± 0.16
12,AACCCCGTGGAAATATGTACATATAAATATATAAAT [XGTACX_site2094],11.1 ± 0.57
13,TATCCTAACTTTAGATGTACACAAATAAAAAAAAAA [XGTACX_site4491],11.7 ± 0.91
14,ACAAAATGTAGAAAATGTACAAAATTAACAAAAGAA [XGTACX_site5019],10.7 ± 0.3
15,ATTCAATCTTTTAATACACACAATTTATTTCAAAAC [CACACA_site835],10.1 ± 0.11
16,TGTACATATATATAGATATATATAGATATATATATA [CACACA_negctrl_site1678],10.5 ± 0.28
17,CCATATAAAATATAAAAACACACGTATATATACATA [CACACA_site1511],9.955 ± 0.021
18,TTTTAAAAAGATCATTAAAAAAAAAAAAAGAACAAA [CACACA_negctrl_site528],10 ± 0.23
19,ATAATATAACAATACGCACACGTATACAAAAAAAAA [CACACA_site5703],10.6 ± 0.47
20,AAATAATGGTTAGCTACACACAAAGCATTTTTTGAA [CACACA_site1016],9.79 ± 0.042
21,AAAATACAAACAAGTGGTACTGTTTATAAATGGTTG [XGTACX_site1503],10.9 ± 0.52
22,TGTCTTGTAAATTATTGTACTATTTAAAGTATACAA [XGTACX_site7864],11.2 ± 0.81
23,TTGTATATATTTATATGTACATATATTACTTTTGCT [XGTACX_site2449],11.2 ± 0.73
24,AATGTTTATTAACATTGTACTTATAATATGTCACAA [XGTACX_site2974],11.3 ± 0.98
